Here are results for 40 sequences from the supplement of paper PMC10338343.

± gives the standard deviation. This is a selection; strong and weak results do not stand in their true shares. Where only a bound is given, the exact number is not on record here.

One assay has as its system MIWI (PIWIL1) piRISC loaded with L1MC piRNA (30 nt). Description: pre-steady-state target cleavage rate (min^-1); MIWI and MILI are mouse PIWI proteins and EfPiwi is from a freshwater sponge; tags in brackets are library labels; higher = faster piRNA-guided slicing of the target. Particulars: guide: L1MC piRNA 5'p-UAACUAAAUACUAUGCAAGCUGUAGGUCCU; auxiliary factor: 500 nM mouse GTSF1. An outline of the steps:
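The pre-steady-state cleavage rate was obtained by Cleave-'n-Seq with a burst-and-steady-state fit. A transcribed, DNA-blocked target RNA library (0.1 nM) was mixed with 1 nM active affinity-purified piRISC carrying one synthetic guide, with or without 500 nM GTSF1 partner protein, in HEPES–potassium acetate buffer at 33 °C for 0–8 or 0–960 min. Uncleaved targets were sequenced and normalised to depth and to weakly complementary targets, with three trials pooled and k3 capped at 0.0001 min^-1.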
For the sequence UCCUGGAUGAGCUUGCAUAGUAUUUAUUA, the “pre-steady-state target cleavage rate” value worked out at 0.0943 ± 0.023.

In the case of UCCUGGUACAGCUACCAUAGUAUUUAGUAA, the “pre-steady-state target cleavage rate” value was 0.184 ± 0.029. Same read-out and setting: the same measure for UCCACCUACACGUUGCAUAGUAUUUACAAA: 0.208 ± 0.024. Consider AGGACCUACAGCUUCCAUAGUAUUAAGUUA, for which the “pre-steady-state target cleavage rate” value is 0.156 ± 0.052. As for UGGACCUACAGCUUGCAUAGUAUAAUCAAA, the “pre-steady-state target cleavage rate” value was found to be 0.205 ± 0.039.

In the case of “UCCUGGAACAGCUUGCAUAGUAUUAUCAAA [g7:g23:cont:t1A]”, the “pre-steady-state target cleavage rate” value worked out at 0.138 ± 0.033. On to AGGACCUACAGGAUGCAUAGUAUUUAGAAA, for which the “pre-steady-state target cleavage rate” value amounted to 0.377 ± 0.049. With UCCUGGUACACGUUGCAUAGUAUUUACAAA, the “pre-steady-state target cleavage rate” value was determined as 0.0642 ± 0.034. UCCUGGAUGAGCUUGCAUAGUAUUAAGAAA: the “pre-steady-state target cleavage rate” value worked out at 0.0428 ± 0.014.

Take UCCUGGAUGAGCUUGCAUAGUAAUUAGAAA: the “pre-steady-state target cleavage rate” value was determined as 0.0194 ± 0.0086. Same read-out and setting: the same measure for UCCUCCUACAGCUUGCAUACAUUUUAGUUA: 0.011 ± 0.0057.

Take UCCUGGAUGUCCAUGCUUAGUAUUUAGUUA: the “pre-steady-state target cleavage rate” value was 0.00676 ± 0.0046. On the same count and under the same terms, the figure for UCCUGGUACAGGAAGCAUAGUAUUUAGUAA is 0.0592 ± 0.011; for UGGACCUACAGCUUCCAUAGUAAUUAGUUA it is 0.0113 ± 0.0031. Same read-out and setting: the figure for UCGACCUACAGCUUGCAUAGUUAAUAGUAA is 0.0939 ± 0.021; for UCCUGGAUGAGCUUGGAUAGUAUUUAGAAA it is 0.0178 ± 0.0058.

In the case of UCCACCUACAGCUUGCAUAAGUAUUUAGUUA, the “pre-steady-state target cleavage rate” value was determined as 0.012 ± 0.0067.

As to UCCUGGAUGAGCUUGCAUAGUAUUAUCUUA, the “pre-steady-state target cleavage rate” value worked out at 0.0411 ± 0.011. On to UCCUGGAACAGCUUGCUAAGUAUUUACAAA, for which the “pre-steady-state target cleavage rate” value amounted to 0.00474 ± 0.0039. As for UCGACCUACAGCUUGCAUAGAUUUUAGUAA, the “pre-steady-state target cleavage rate” value is 0.124 ± 0.023. Same read-out and setting: the same measure for UCGACCUACAGCUUCCAUAGUAUUAAGUUA: 0.0786 ± 0.026; for UCCUGGAUGUCGAACCAUAGUAUUUAGUCA: less than 0.0001. As to UCCUGGAUGUCCAUGCAUAGUUUUUAGUUA, the “pre-steady-state target cleavage rate” value was determined as 0.00744 ± 0.0031. Take UCCACCUACAGCUUGCAUUGUAUUUAGAAA: the “pre-steady-state target cleavage rate” value came to 0.111 ± 0.018. Take UGCACCUACAGCUUCCAUAGUAUUUAGUUA: the “pre-steady-state target cleavage rate” value is 0.177 ± 0.061. The same measure, in the same setting: the figure for UCCUGGAUGUCGAAGCAUAGUAUUUACGUUA is 0.00575 ± 0.003. Still for that read-out and setting: the figure for UGGACCUACAGCUUGCAUAGUAUUAUGAAA is 0.225 ± 0.041; for UGGACCUACAGCUUGGUUAGUAUUUAGAAA it is 0.231 ± 0.033. Still for that read-out and setting: the figure for ACCACCUACAGCUUGCAUAGUAUUUUCAAA is 0.519 ± 0.073; for UCCUGGAUGUCCAAGCAUAGUAUUUAGUAA it is 0.00855 ± 0.0048.

UCCUCCUACAGCUUGCAAUGUAUUUACAAA: the “pre-steady-state target cleavage rate” value came to 0.0758 ± 0.019. Regarding AGGACCUACAGCUACCAUAGUAUUUAGAAA, the “pre-steady-state target cleavage rate” value was determined as 0.146 ± 0.034.

As to UCCUGGAAGAGCUUCCAUAGUAUUUAGUUA, the “pre-steady-state target cleavage rate” value was 0.255 ± 0.058. Consider UCCUGGUAGAGCUUCCAUAGUAUUUAGUUA, for which the “pre-steady-state target cleavage rate” value came out at 0.0436 ± 0.015. Turning to UCCUGGAUGUCCUUGCAUAGUAUUAACUUA, the “pre-steady-state target cleavage rate” value amounted to 0.00404 ± 0.004. On the same count and under the same terms, the same measure for UCCUCCUACAGCUACCAUAGUAUUUAGAAA: 0.0705 ± 0.023. Same read-out and setting: the same measure for UCCUGGAUGUCGAACGUAUGUAUUUAGAUA: less than 0.0001.

Staying with this assay, now noted: guide: L1MC piRNA 5'p-UAACUAAAUACUAUGCAAGCUGUAGGUCCU; auxiliary factor: none (no GTSF1).
Take AGGACCAACAGCUUGGAUAGUAUUUAGUUA: the “pre-steady-state target cleavage rate” value came to 0.0681 ± 0.01. For the sequence UGGACCUACAGCUUGCAUGGUAUUUAGUUA, the “pre-steady-state target cleavage rate” value worked out at 0.0478 ± 0.01. The same measure, in the same setting: the same measure for UCCUGGAUGUCGAACCAUACUAUUUAGAUA: less than 0.0001.
